Results published in PMC2666074 (Biochemistry, 2008).

Target: S100A6 (rabbit, intact) (rabbit, UniProt P30801)
Assay: ITC

fold reduction in binding affinity against wild-type SIP: > 10 fold
B1: SIP M207A (full length) (natural protein)
chain: not shown
